Results published in PubChem BioAssay AID624296 (National Center for Advancing Translational Sciences (NCATS), 2012).
The campaign covered roughly 350,000 compounds. About 9,900 (2.8%) were called active. The shares of active, inactive and inconclusive entries below differ from those in the screen. Calls follow the shape of the dose curve; as a rule, active = well fitted activation curve with a large enough effect; inconclusive = small, poorly fitted or top-dose-only effect; inactive = no such curve, though single readings can be large or run the other way. Potencies of inconclusive entries are left out as doubtful fits.

Experiment: A quantitative high throughput screen for small molecules that induce DNA re-replication in MCF 10a normal breast cells. Also: nearly all actives have a fitted effect of over 50% in size. As to activity, positive = re-replication: % of control where 0% means no effect.
Details: MCF 10A DNA re-replication, Hoechst nuclear intensity, 48 h; series mostly up to 46.1 µM; activity, positive = re-replication: at the top concentration
Potency is read from the fitted curve at half-maximal effect; tags tell the direction and shape of the fitted curve.

**Q.** For `O=C(NC(=S)Nc1ccc2c(c1)OCCO2)c1ccco1`, which “activity, positive = re-replication” value is on record?
**A.** Its value is inactive: 1.14%.

**Q.** Which Potency does the source give for `C=C(C)C(=O)OC1(C(F)(F)F)Oc2cc(C)ccc2NC1=O` (stereo unspecified) here?
**A.** The Potency was active: 16.4 µM.

**Q.** For `O=C(NCc1nc2ccccc2[nH]1)C1=C[C@@H](c2ccc(C(F)(F)F)cc2)C[C@@H](OCc2ccc(CO)cc2)O1`, which Potency is on record?
**A.** The Potency was inconclusive [activator, partial curve, poor fit].

**Q.** With `Cc1ccccc1NC(=O)C1(C)Cc2ccccc2C(=O)O1` (stereo unspecified) as the compound, how does the Potency read?
**A.** The Potency was inconclusive [activator, single point].

**Q.** With `COc1ccc(C2c3[nH]c4ccccc4c3C[C@H]3C(=O)N(C4CCN(Cc5ccccc5)CC4)CC(=O)N23)cc1OC` (stereo partly specified) as the compound, how does the Potency read?
**A.** The Potency was inconclusive [activator, single point].

**Q.** For `O=C1[C@H](Cc2ccccc2)NCCCC[C@@H](c2ccc(Cl)cc2)N1Cc1ccc(Cl)cc1`, which Potency is on record?
**A.** Its Potency is inconclusive [activator, single point].

**Q.** Which Potency does the source give for `COc1ccc(-c2cc(-c3nnc(COC(=O)CC4CCCC4)o3)c3ccccc3n2)cc1OC` here?
**A.** The Potency was active: 14.6 µM.

**Q.** For `O=C(Nc1cccc(Cl)c1)Nc1sccc1-c1nc2ccccc2s1`, which Potency is on record?
**A.** Its Potency is active: 16.4 µM.

**Q.** For `CS(=O)(=O)N1CCC(C(=O)Nc2ccc(F)c(Cl)c2)CC1`, which Potency is on record?
**A.** Its Potency is inconclusive [activator, single point].

**Q.** With `Cc1cc(F)ccc1S(=O)(=O)Nc1ccccc1C(=O)Nc1ccccc1-c1nc2ccccc2[nH]1` as the compound, how does the Potency read?
**A.** The Potency was active: 3.66 µM.

**Q.** With `Cc1cccn2c(=O)c3cc(C(=O)N4COCC4(C)C)n(Cc4ccccc4)c3nc12` as the compound, how does the Potency read?
**A.** Its Potency is inconclusive [activator, single point].

**Q.** For `CCc1ccc(-c2csc(NC(=O)C3CC(=O)N(c4ccc5c(c4)OCCO5)C3)n2)cc1` (stereo unspecified), which Potency is on record?
**A.** Its Potency is active: 18.4 µM.

**Q.** For `CCOC(=O)c1cnc(Nc2nc3ccccc3o2)nc1CSc1nnc(C)s1`, which Potency is on record?
**A.** The Potency was inconclusive [activator, partial curve, poor fit].

**Q.** For `O=C(/C=C/c1cccc(F)c1)Nc1cc(S(=O)(=O)N2CCOCC2)ccc1Cl`, which Potency is on record?
**A.** The Potency was inconclusive [activator, single point].

**Q.** With `CCCCCCNCc1ccc(Br)cc1` as the compound, how does the Potency read?
**A.** Its Potency is inconclusive [activator, partial curve, poor fit].

**Q.** Which Potency does the source give for `CCN(CC)c1ccc(/C=N/N2CC(=O)NC2=S)cc1` here?
**A.** The Potency was inconclusive [activator, partial curve, poor fit].

**Q.** Which Potency does the source give for `O=C(c1ccccc1)C(O)(CN1CCCCC1)c1ccccc1` (stereo unspecified) here?
**A.** The Potency was inconclusive [activator, partial curve].

**Q.** With `COC(=O)c1ccc(CSc2nnc(C)s2)cc1` as the compound, how does the Potency read?
**A.** Its Potency is inconclusive [activator, single point].

**Q.** With `C1=CC2=NC34CCCCC3CC3=C(CCCC3)N4C2=CC1=NC1CCCCC1` (stereo unspecified) as the compound, how does the Potency read?
**A.** Its Potency is inconclusive [activator, single point].

**Q.** With `CNC(=O)c1sc(N2N=C3/C(=C\c4ccccc4)CCCC3C2c2ccccc2)nc1C` (stereo unspecified) as the compound, how does the Potency read?
**A.** Its Potency is inconclusive [activator, single point].

**Q.** With `CC(C)C(NS(=O)(=O)c1cccc(C(F)(F)F)c1)C(=O)O` (stereo unspecified) as the compound, how does the “activity, positive = re-replication” value read?
**A.** The value was inactive: 1.4%.

**Q.** For `CCOc1ccc(CN2CCN(CCCc3ccccc3)CC2CCO)cc1` (stereo unspecified), which Potency is on record?
**A.** The Potency was inconclusive [activator, partial curve].

**Q.** With `Cc1ccc(NC(=O)COC(=O)C2CC(=O)N(Cc3ccccc3)C2)cc1F` (stereo unspecified) as the compound, how does the Potency read?
**A.** Its Potency is inconclusive [activator, single point].

**Q.** For `CCCCNc1c(-c2ccc(OC)c(SC(C)CC)c2)nc2ccc(Cl)cn12` (stereo unspecified), which Potency is on record?
**A.** Its Potency is active: 20.6 µM.

**Q.** Which “activity, positive = re-replication” value does the source give for `CCC(=O)OC1CC(C)N(C(=O)c2ccccc2)c2ccc(C)cc21` (stereo unspecified) here?
**A.** The value was inactive: -16.8%.

**Q.** Which Potency does the source give for `O=C(CCl)N1CCN2C(=O)c3ccccc3C12c1ccc(Cl)cc1` (stereo unspecified) here?
**A.** The Potency was active: 23.1 µM.

**Q.** For `CCc1ccc(Nc2nnc(SCC(=O)Nc3ccc(C(=O)O)cc3)s2)cc1`, which “activity, positive = re-replication” value is on record?
**A.** Its value is inactive: -4.2%.

**Q.** With `C=CCn1c(=N)n(CC(=O)c2ccc(Br)s2)c2ccccc21` as the compound, how does the “activity, positive = re-replication” value read?
**A.** The value was inactive: -4.01%.

**Q.** With `CCCc1nc2c(sc3nc4c(cc32)COC(C)(C)C4)c(=O)n1CCN(CC)CC` as the compound, how does the Potency read?
**A.** Its Potency is inconclusive [activator, partial curve, poor fit].

**Q.** With `CC1CC2=C(NC(=S)NC2c2cccc(F)c2)/C(=C/c2cccc(F)c2)C1` (stereo unspecified) as the compound, how does the Potency read?
**A.** Its Potency is inconclusive [activator, full curve, poor fit].

**Q.** For `FC(F)Sc1ccc(NC(=S)NCC2CCCCC2)cc1`, which Potency is on record?
**A.** The Potency was inconclusive [activator, single point].

**Q.** Which Potency does the source give for `CCCCNS(=O)(=O)c1ccc2nc(SCC(=O)Nc3cc(C)cc(C)c3)[nH]c2c1` here?
**A.** The Potency was inconclusive [activator, single point].

**Q.** For `CCOc1ccc(C(=O)NCC(=O)NCCSc2ccc(Br)cc2)cc1OCC`, which “activity, positive = re-replication” value is on record?
**A.** Its value is inactive: 1.55%.

**Q.** With `Cn1c(=O)c2c(ncn2CC(=O)NC[C@H]2O[C@@H](n3cnc4c(N)ncnc43)[C@H](O)[C@@H]2O)n(C)c1=O` as the compound, how does the “activity, positive = re-replication” value read?
**A.** Its value is inactive: -8.67%.

**Q.** With `CC1CCCCC1NC(=S)Nc1ccc(Cl)cc1Cl` (stereo unspecified) as the compound, how does the Potency read?
**A.** Its Potency is inconclusive [activator, single point].

**Q.** With `CCOC(=O)c1c(C=O)c(C)n(Cc2ccc(C)cc2)c1C` as the compound, how does the Potency read?
**A.** The Potency was inconclusive [activator, partial curve, poor fit].

**Q.** Which Potency does the source give for `Cc1ccccc1Cn1c(=O)n(CC2CCC(C(=O)NCCc3ccccc3)CC2)c(=O)c2ccccc21` (stereo unspecified) here?
**A.** Its Potency is inconclusive [activator, partial curve, poor fit].

**Q.** Which Potency does the source give for `CC[C@H](CO)NCCN[C@H](CC)CO` here?
**A.** The Potency was inconclusive [activator, partial curve, poor fit].

**Q.** For `O=C(NCc1ccc2c(c1)OCO2)C1CC(c2ccc(Cl)c(Cl)c2)=NO1` (stereo unspecified), which Potency is on record?
**A.** Its Potency is active: 2.59 µM.

**Q.** Which “activity, positive = re-replication” value does the source give for `Cn1c(=O)[nH]c(=O)c2c1nc(SCC(O)CCl)n2Cc1ccccc1` (stereo unspecified) here?
**A.** The value was inactive: 25%.

**Q.** Which Potency does the source give for `CC(=O)Oc1ccc(/C=C2/CCc3ccccc3C2=O)cc1` here?
**A.** Its Potency is inconclusive [activator, partial curve, poor fit].

**Q.** For `CCOC(=O)C1C(C(=O)OC)=C(C2=CCCCC2)c2ccccc2N1S(=O)(=O)C(F)(F)F` (stereo unspecified), which Potency is on record?
**A.** The Potency was inconclusive [activator, full curve, poor fit].

**Q.** Which “activity, positive = re-replication” value does the source give for `O=C(c1c[nH]c(C(=O)C(Cl)(Cl)Cl)c1)c1ccc(F)cc1Cl` here?
**A.** The value was inactive: 9.12%.

**Q.** Which Potency does the source give for `Cc1cc(C)cc(NC(=O)Cn2cc(C=O)c3ccccc32)c1` here?
**A.** Its Potency is inconclusive [activator, single point].

**Q.** With `CCn1c(=O)c2cc(C(=O)NCCN(C)C)sc2c2ccccc21` as the compound, how does the Potency read?
**A.** The Potency was inconclusive [activator, partial curve, poor fit].

**Q.** Which Potency does the source give for `CCc1cc(SC#N)cc(C)c1NC(=O)CCl` here?
**A.** Its Potency is active: 16.4 µM.

**Q.** Which Potency does the source give for `Nc1c(-c2ccc(Cl)cc2)cnc2c(-c3ccccc3)cnn12` here?
**A.** The Potency was inconclusive [activator, partial curve, poor fit].

**Q.** Which “activity, positive = re-replication” value does the source give for `CCCN(CCC)CCCNC(=O)CC(C(=O)N1CCc2ccccc21)n1ccnc1` (stereo unspecified) here?
**A.** Its value is inactive: 5.69%.

**Q.** Which Potency does the source give for `O=C(O)CCSCC(=O)c1ccc2c(c1)OCCO2` here?
**A.** The Potency was inconclusive [activator, single point].

**Q.** With `Cc1ccc2nc(NCC(N)=O)nc(-c3ccccc3)c2c1` as the compound, how does the Potency read?
**A.** The Potency was inconclusive [activator, single point].

**Q.** With `Cc1nc(NC(=O)CSc2cc(C)c3ccccc3n2)c(Cl)cc1Cl` as the compound, how does the Potency read?
**A.** Its Potency is inconclusive [activator, partial curve, poor fit].

**Q.** With `COc1ccc(/C=C/c2onc(C)c2S(=O)(=O)N2CCC(C(=O)N3CCCCCC3)CC2)cc1` as the compound, how does the Potency read?
**A.** Its Potency is inconclusive [activator, partial curve].

**Q.** For `O=C(NCc1ccncc1)c1cn(-c2ccccc2)nc1-c1cccnc1`, which “activity, positive = re-replication” value is on record?
**A.** Its value is inactive: 3.01%.

**Q.** For `C=CCOC(=O)C1=C[C@H](c2ccccc2)[C@@H](CCCO)[C@H](OCC)O1`, which Potency is on record?
**A.** Its Potency is inconclusive [activator, full curve, poor fit].

**Q.** Which Potency does the source give for `O=C1OCCN1C(=O)[C@H]1[C@H](c2ccccc2)C(c2cccc(Cl)c2)=NN1c1ccc(Br)cc1` here?
**A.** The Potency was inconclusive [activator, partial curve, poor fit].

**Q.** With `CN(CC(=O)NC(=O)Nc1ccccc1F)Cc1ccccc1` as the compound, how does the Potency read?
**A.** Its Potency is inconclusive [activator, partial curve, poor fit].

**Q.** Which Potency does the source give for `COc1ccc(-c2csc(NC(=S)NC(=O)/C=C/c3ccco3)n2)cc1Br` here?
**A.** The Potency was inconclusive [activator, partial curve, poor fit].

**Q.** For `COc1ccc(-c2noc(CSc3nc(-c4ccccc4)cc(=O)[nH]3)n2)cc1OC`, which Potency is on record?
**A.** Its Potency is inconclusive [activator, single point].

**Q.** With `O=C1CCC/C=C\C[C@@H](CC(=O)N(CCO)Cc2ccccc2)C(=O)N2CCC[C@H]2CO1` as the compound, how does the Potency read?
**A.** The Potency was inconclusive [activator, single point].

**Q.** Which “activity, positive = re-replication” value does the source give for `CCOc1ccc(S(=O)(=O)Nc2ccc(C(=O)N3CCCC3)cc2)cc1` here?
**A.** The value was inactive: -16%.

**Q.** For `CCc1c(C)nc2c(-c3ccccc3)c(C)nn2c1Nc1ccc(NC(C)=O)cc1`, which Potency is on record?
**A.** Its Potency is inconclusive [activator, single point].

**Q.** Which Potency does the source give for `N#C/C(=C/c1ccc(N2CCOCC2)o1)C(=O)NC1CCCCC1` here?
**A.** The Potency was inconclusive [activator, single point].

**Q.** For `CC(C)NC(=O)NC(=O)CSc1nnc(-c2ccccc2F)n1N`, which Potency is on record?
**A.** The Potency was inconclusive [activator, single point].

**Q.** Which “activity, positive = re-replication” value does the source give for `COc1ccc(S(=O)(=O)N2CCN(C(=O)Cc3ccsc3)CC2)cc1` here?
**A.** Its value is inactive: 7.86%.

**Q.** With `COc1cccc(CNC(=O)c2cc(COc3c(F)cccc3F)on2)c1` as the compound, how does the “activity, positive = re-replication” value read?
**A.** Its value is inactive: -4.45%.

**Q.** For `CCN1CCN(c2ccc(NC(=O)c3ccccc3F)cc2Cl)CC1`, which Potency is on record?
**A.** Its Potency is inconclusive [activator, partial curve, poor fit].
